These results are taken from patent US20240109963A1 (AB THERAPEUTICS, published 2024).

Broadly, the EC50 is the midpoint of the concentration-response curve.

Test [1] deals with T1, Claudin 18.2 on CHO cells (CHO+ Claudin 18.2) (UniProt P56856-2 1-261).
T1 construct: whole, on cells; also called CHO_18.2
T1 sequence (looked up): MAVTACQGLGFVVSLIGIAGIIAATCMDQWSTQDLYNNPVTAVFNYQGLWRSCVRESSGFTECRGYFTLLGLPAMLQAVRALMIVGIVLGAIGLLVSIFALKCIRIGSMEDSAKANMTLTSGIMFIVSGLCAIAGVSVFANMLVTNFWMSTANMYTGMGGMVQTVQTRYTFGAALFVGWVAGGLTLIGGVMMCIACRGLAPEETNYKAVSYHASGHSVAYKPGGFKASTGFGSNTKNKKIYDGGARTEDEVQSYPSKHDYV
The experiment in a line: flow cytometry on Claudin 18.2-expressing CHO cells (summary table). A general note: Flow cytometry measures light scatter and fluorescence of single cells or particles in a stream.

A further test concerns the target T2, CD3 on Jurkat cells.
T2 construct: whole, on cells; also called CD3+ Jurkat cells
The experiment in a line: flow cytometry on Jurkat cells, CD3 binding (T cell) (summary table).

Test [2] concerns the target T3, full-length human Claudin 18.2 on MIA PaCa-2 cells (MIA PaCa-2+ Claudin 18.2) (human, UniProt P56856-2 1-261).
T3 sequence (looked up): T1 sequence (looked up)
The experiment in a line: cell-based or functional assay.

T2 sequence (P07766 23-207, chain 1 of 3): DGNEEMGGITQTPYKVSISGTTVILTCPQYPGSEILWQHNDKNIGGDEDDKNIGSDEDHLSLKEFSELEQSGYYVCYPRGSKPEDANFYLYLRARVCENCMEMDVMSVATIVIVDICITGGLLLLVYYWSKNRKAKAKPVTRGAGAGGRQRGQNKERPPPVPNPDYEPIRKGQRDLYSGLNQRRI
T2 sequence (P09693 23-182, chain 2 of 3, further chain): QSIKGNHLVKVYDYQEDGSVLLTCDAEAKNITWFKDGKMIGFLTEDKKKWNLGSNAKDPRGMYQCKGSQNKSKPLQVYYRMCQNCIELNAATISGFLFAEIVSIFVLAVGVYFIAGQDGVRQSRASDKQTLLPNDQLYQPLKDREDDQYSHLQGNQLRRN
T2 sequence (P04234 22-171, chain 3 of 3, further chain): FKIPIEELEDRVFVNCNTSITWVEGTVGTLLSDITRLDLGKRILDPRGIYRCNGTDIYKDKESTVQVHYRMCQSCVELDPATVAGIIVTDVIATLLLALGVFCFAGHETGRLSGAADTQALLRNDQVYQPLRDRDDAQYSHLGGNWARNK

B1: Clnd18.2-1A11/3C2FC/CD3(up) TsAb (TriSpecific-V1 structure) (other)
chain: QVQLVESGGGLVQPGGSLRLSCAASGFTFSNYAMYWVRQAPGKGPEWVSVISGGGGVISYADSVKGRFTISRDNAKNTMYLQMNSLKPEDTAVYYCNAQSAVWWENDYWGQGTQVTVSSGGGGSGGGGSGGGGSQVQLVESGGGLVQAGGSLRLSCAASGLTFSLYDMGWFRQAPGKEREWVATITSSGNTGYAESVKGRFTVSRDNGKKTGYLQTNNLKPEDTALYYCYVPFLGRGYGTLVTVSS[human IgG1 Fc with S354Y T366Y (EU numbers) not written out]
heavy: EVQLQESGAELARPGASVKMSCKASGYTFTSYTMHWVKQRPGEGLEWIGYINPSSGYTKYNQKFKDKATLTADKSSSTAYMELSSLTSEDSAVYYCARWQDYDVYFDYWGEGTTLTVSSASTKGPSVFPLAPSSKSTSGGTAALGCLVKDYFPEPVTVSWNSGALTSGVHTFPAVLQSSGLYSLSSVVTVPSSSLGTQTYICNVNHKPSNTKVDKKV[human IgG1 Fc with Q347E Y407T (EU numbers) not written out]
light: QIVLSQSPAILSASPGEKVTMTCRASSSVSYIHWFQQKPGSSPKPWIYATSNLASGVPVRFSGSGSGTSYSLTISRVEAEDAATYYCQQWTSNPPTFGGGTKLEIKRTVAAPSVFIFPPSDEQLKSGTASVVCLLNNFYPREAKVQWKVDNALQSGNSQESVTEQDSKDSTYSLSSTLTLSKADYEKHKVYACEVTHQGLSSPVTKSFNRGEC
In the case of B1, the EC50 stood at 0.015 µg/mL in test [1] and 37 µg/mL with CD3 on Jurkat cells. Besides, the “T cell activation EC50 (CD69-positive cells)” value in test [2] is 0.0236 µg/mL.
